{"source": "PubChem BioAssay AID588342", "about": "(National Center for Advancing Translational Sciences (NCATS), 2011)", "note": "Out of some 360,000 compounds screened, about 25,000 (6.9%) were called active. Inconclusive means that the source gave no clear call. Such entries were picked first, then a sample of the others. The call rests on the fitted dose curve; in most records, active means well fitted inhibition curve with a large enough effect; inconclusive means small, poorly fitted or top-dose-only effect; inactive means flat fitted curve, though single readings scatter. Potencies beside an inconclusive call are fits to weak or partial responses and may not hold up. The source holds several records for some structures; these can differ, active in one and inactive in another. Potency means the concentration at half of the fitted maximal effect; tags describe the fitted curve by direction and shape."}
{"biological_target": "Luciferin 4-monooxygenase (Photinus pyralis) (UniProt P08659)", "sequence (P08659 whole entry, looked up)": "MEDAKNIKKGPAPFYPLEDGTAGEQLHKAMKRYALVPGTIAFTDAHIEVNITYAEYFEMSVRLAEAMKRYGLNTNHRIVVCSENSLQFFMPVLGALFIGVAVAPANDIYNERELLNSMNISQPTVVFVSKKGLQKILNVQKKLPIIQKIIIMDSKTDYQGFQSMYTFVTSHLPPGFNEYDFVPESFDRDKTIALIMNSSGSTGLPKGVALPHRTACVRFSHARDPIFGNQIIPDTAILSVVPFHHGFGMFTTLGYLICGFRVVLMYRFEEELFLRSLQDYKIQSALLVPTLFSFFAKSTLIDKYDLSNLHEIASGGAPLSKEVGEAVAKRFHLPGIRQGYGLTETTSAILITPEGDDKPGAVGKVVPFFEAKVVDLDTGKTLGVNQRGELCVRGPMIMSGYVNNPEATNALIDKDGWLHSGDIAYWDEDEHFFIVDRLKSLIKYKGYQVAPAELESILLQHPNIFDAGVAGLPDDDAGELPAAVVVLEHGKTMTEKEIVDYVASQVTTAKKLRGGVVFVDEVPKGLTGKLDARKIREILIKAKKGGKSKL", "assay": "qHTS profiling assay for firefly luciferase inhibitor/activator using purifed enzyme and Km concentrations of substrates (counterscreen for miR-21 project); further: nearly all actives have a fitted effect of over 55% in size;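 on activity change, negative = inhibition: plate controls were vehicle for no effect and reference inhibitor for full effect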", "details": "purified FLuc, luminescence inhibition; activity change, negative = inhibition: at 57.5 µM (top of the series)", "how_it_was_run": "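Purified P. pyralis luciferase, 10 nM final, with Km-level 10 uM D-luciferin and 10 uM ATP in 50 mM Tris acetate pH 7.5, 10 mM Mg acetate, 0.01% Tween-20, 0.05% BSA; 6-point qHTS titration about 60 µM downward; luminescence read.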"}
{"smiles": "COc1ccc2occ(C(=O)c3cccs3)c2c1", "Potency": "active: 6.01 µM"}
{"smiles": "c1ccc2c(N3CCOCC3)nc(-c3ccncc3)nc2c1", "Potency": "inactive"}
{"smiles": "O=C(c1cccc(C(F)(F)F)c1)C1CCCN(C(=O)CN2CCCC2=O)C1", "note": "(stereo not drawn)", "Potency": "inconclusive: 26.9 µM [inhibitor, partial curve, poor fit]"}
{"smiles": "Oc1ccc(NC(=S)N=Nc2c(O)[nH]c3ccccc23)cc1", "Potency": "inconclusive: 21.3 µM [inhibitor, single point]"}
{"smiles": "CC1CCCN(S(=O)(=O)c2ccc(C(=O)Nc3nnc(-c4ccncc4)o3)cc2)C1", "note": "(stereo not drawn)", "Potency": "inconclusive: 37.9 µM [inhibitor, partial curve, poor fit]"}
{"smiles": "CC(=O)c1c(C)[nH]c(C(=O)Nc2nc(-c3ccccc3)c(C)s2)c1C", "Potency": "active: 3.01 µM"}
{"smiles": "OCC[C@H]1C[C@H](O)[C@@H](O)[C@]2(CCCc3ccccc3O2)O1", "Potency": "inactive"}
{"smiles": "CCOC(=O)c1cnc2c(C)c(Cl)ccc2c1Nc1ccc(S(=O)(=O)Nc2ncccn2)cc1", "Potency": "inconclusive: 30.1 µM [inhibitor, single point]"}
{"smiles": "O=C(c1ccccc1)c1cc2cc(Cl)ccc2[nH]1", "Potency": "inconclusive: 7.57 µM [inhibitor, partial curve, poor fit]"}
{"smiles": "CN(CCOC(=O)c1ccc2c(c1)OCCO2)Cc1ccccc1", "Potency": "inconclusive: 30.1 µM [inhibitor, partial curve, poor fit]"}
{"smiles": "CCN(CC(=O)Nc1ccc(NC(C)=O)cc1)C(=O)COc1ccccc1Cc1ccccc1", "Potency": "inactive"}
{"smiles": "COc1ccc(N2Cc3cccc(C(=O)Nc4ccc(F)cc4)c3C2=O)cc1", "Potency": "inactive"}
{"smiles": "CCCCc1cc(=O)oc2cc(OS(C)(=O)=O)ccc12", "Potency": "inconclusive: 13.5 µM [inhibitor, partial curve, poor fit]"}
{"smiles": "COc1ccc(NC(=O)CSc2nc3nc(C)c(Cc4ccccc4Cl)c(C)n3n2)cc1OC", "Potency": "inactive"}
{"smiles": "Nc1nc(CSC(=S)N2CCOCC2)nc(Nc2ccc(F)cc2)n1", "Potency": "inconclusive: 12 µM [inhibitor, partial curve, poor fit]"}
{"smiles": "O=C(O)Cn1cc(C(=O)c2cccs2)c2ccccc21", "Potency": "inconclusive: 37.9 µM [inhibitor, partial curve, poor fit]"}
{"smiles": "O=C(NC(=S)Nc1ccc(CN2CCOCC2)cc1)c1ccc(-c2cccc(Cl)c2)o1", "Potency": "inconclusive: 8.49 µM [inhibitor, partial curve, poor fit]"}
{"smiles": "Cc1cc(C)c(C#N)c(SCc2nc3ccccc3[nH]2)n1", "Potency": "inconclusive: 23.9 µM [inhibitor, single point]"}
{"smiles": "NS(=O)(=O)c1ccc(CCNC(=O)c2cc(-c3ccccc3)nc3ccccc23)cc1", "Potency": "inconclusive: 9.53 µM [inhibitor, partial curve, poor fit]"}
{"smiles": "COc1ccc(-n2c(=O)c3ccccc3n(CC(=O)NCCc3ccc(OC)c(OC)c3)c2=O)cc1", "Potency": "inactive"}
{"smiles": "C/C(=N\\Nc1nc2ccccc2[nH]1)c1cc2ccccc2o1", "Potency": "active: 2.39 µM"}
{"smiles": "Cc1csc(CNc2ncnc3ccc(-c4ccc5c(ccn5C)c4)cc23)c1", "Potency": "inconclusive: 21.3 µM [inhibitor, partial curve, poor fit]"}
{"smiles": "CCc1ccc(NC(=O)c2ccc(NC3=NC4CS(=O)(=O)CC4S3)cc2)cc1", "note": "(stereo not drawn)", "Potency": "inconclusive: 19 µM [inhibitor, partial curve]"}
{"smiles": "COc1ccc(CNC(=O)/C=C/c2ccc(OCCCF)cc2)cc1OC", "Potency": "inconclusive: 19 µM [inhibitor, partial curve]"}
{"smiles": "CCN(CC)c1ccc(NC(=O)c2sc3nc4c(cc3c2N)CN(C)CC4)cc1", "Potency": "inconclusive: 10.7 µM [inhibitor, partial curve, poor fit]"}
{"smiles": "Cc1ccccc1NC(=O)CN1C(=O)S/C(=C\\c2ccc(-c3cc(C(=O)O)ccc3C)o2)C1=O", "Potency": "inconclusive: 37.9 µM [inhibitor, single point]"}
{"smiles": "COc1ccc(-c2ccc(CCC(=O)O)n2CC(=O)Nc2ccccc2C)cc1", "Potency": "inactive"}
{"smiles": "COc1ccc(N/C=C/c2nc(SC)nnc2C)cc1", "Potency": "inconclusive: 19 µM [inhibitor, partial curve]"}
{"smiles": "COc1cc(OC)c(OC)cc1CNc1sc2c(c1C(=O)Nc1ccccc1OC)CCC2", "Potency": "inactive"}
{"smiles": "COCCCNC(=O)/C=C/c1ccc(Cl)cc1", "Potency": "inconclusive: 26.9 µM [inhibitor, partial curve, poor fit]"}
{"smiles": "O=C(CCN1C(=O)S/C(=C\\c2ccc(F)cc2)C1=O)Nc1ccc(C(=O)O)c(O)c1", "Potency": "active: 2.13 µM"}
{"smiles": "COc1ccccc1N(CC(=O)N/N=C(\\C)c1ccccc1O)S(=O)(=O)c1ccc(C)cc1", "Potency": "inactive"}
{"smiles": "O=C(Nc1cccnc1)c1cc(-c2ccc(Cl)c(Cl)c2)on1", "Potency": "inconclusive: 2.69 µM [inhibitor, full curve]"}
{"smiles": "O=C(O)CSc1cc(NS(=O)(=O)c2ccc(Cl)cc2)c2ccccc2c1O", "Potency": "inconclusive: 37.9 µM [inhibitor, partial curve, poor fit]"}
{"smiles": "COc1cccc(NC(=O)c2cccc(C(=O)Nc3cccc(OC)c3)n2)c1", "Potency": "inconclusive: 10.7 µM [inhibitor, partial curve]"}
{"smiles": "COc1ccc(NC(=O)c2cnc[nH]2)cc1", "Potency": "inconclusive: 26.9 µM [inhibitor, single point]"}
{"smiles": "COc1ccc(S(=O)(=O)c2cc(NS(=O)(=O)c3ccc(Cl)cc3)c(C)c(C)c2O)cc1", "Potency": "inconclusive: 12 µM [inhibitor, partial curve]"}
{"smiles": "CCOC(=O)c1cc2c(s1)-c1ccccc1CC2", "Potency": "active: 10.7 µM"}
{"smiles": "O=C(Nc1cccc(OCC(=O)N2CCOCC2)c1)c1ccc(C(F)(F)F)cc1", "Potency": "active: 15.1 µM"}
{"smiles": "COCc1cc(=O)n2[nH]c(-c3cccs3)cc2n1", "Potency": "inconclusive: 37.9 µM [inhibitor, partial curve, poor fit]"}
{"smiles": "CC(C)(C)c1cc(C(=O)N/N=C/c2ccccn2)n[nH]1", "Potency": "inconclusive: 26.9 µM [inhibitor, single point]"}
{"smiles": "CCc1nn(CC(=O)NCc2ccccc2Cl)c(=O)c2cccn12", "Potency": "inconclusive: 19 µM [inhibitor, partial curve, poor fit]"}
{"smiles": "COc1ccc2nc(NC(=O)C3CCN(C(=O)c4ccco4)CC3)sc2c1", "Potency": "inconclusive: 30.1 µM [inhibitor, single point]"}
{"smiles": "CCCc1nnc(NC(=O)c2cc3ccccc3oc2=O)s1", "activity change, negative = inhibition": "inactive: -0.161% [at 2.3 µM]"}
{"smiles": "CCCCN=C1NN=C(c2cccc([N+](=O)[O-])c2)CS1", "Potency": "inconclusive: 26.9 µM [inhibitor, single point]"}
{"smiles": "O=C(COc1ccccc1[N+](=O)[O-])Nc1ccc(-c2nc3ccccc3s2)cc1", "Potency": "inactive"}
{"smiles": "CCc1c(C)sc(NC(=O)Cn2nc(C)c([N+](=O)[O-])c2C)c1C(N)=O", "Potency": "inconclusive: 37.9 µM [inhibitor, partial curve, poor fit]"}
{"smiles": "Cc1ccnc(NC(=O)C23CC4CC(CC(C4)C2)C3)c1", "Potency": "inconclusive: 21.3 µM [inhibitor, partial curve]"}
{"smiles": "C=CCc1ccc(OCCCCNC2CCCC2)c(OC)c1", "Potency": "inactive"}
{"smiles": "CCOc1ccc2nc(COC(=O)c3cccs3)c(C(C)=O)[n+]([O-])c2c1", "Potency": "inconclusive: 30.1 µM [inhibitor, partial curve, poor fit]"}
{"smiles": "Cc1ccccc1Cn1ccc(-c2ccc3c(c2)OCO3)n1", "Potency": "active: 15.1 µM"}
{"smiles": "O=C(NCCSc1ccccc1)c1ccco1", "Potency": "active: 23.9 µM"}
{"smiles": "O=C(Nc1ccc(-c2cn3ccccc3n2)cc1)c1ccc(Cl)cc1", "Potency": "inactive"}
{"smiles": "CSc1nc2c(c(=O)[nH]1)C(c1ccc(C(F)(F)F)cc1)CC(=O)N2", "note": "(stereo not drawn)", "Potency": "inconclusive: 21.3 µM [inhibitor, partial curve, poor fit]"}
{"smiles": "Cc1cccc(N2CCN(C(=O)CCn3c(=O)c4cccn4c4cccnc43)CC2)c1C", "Potency": "inactive"}
{"smiles": "COc1ccccc1-c1cc2nc(C)c(CCC(=O)NCc3cccc(Cl)c3)c(C)n2n1", "Potency": "inconclusive: 30.1 µM [inhibitor, partial curve, poor fit]"}
{"smiles": "Cc1ccc2c(Cl)c(C(=O)Nc3nn[nH]n3)sc2c1", "Potency": "active: 16.9 µM"}
{"smiles": "CCOC(=O)C1CCCN(CCC(=O)Nc2cccc(C)c2)C1", "note": "(stereo not drawn)", "Potency": "active: 15.1 µM"}
{"smiles": "Cc1cccc(-c2noc(CN(C)C(=O)c3ccoc3C)n2)c1", "Potency": "inconclusive: 37.9 µM [inhibitor, partial curve, poor fit]"}
{"smiles": "Cc1ccc(C(=O)Nc2ccc(F)cc2)o1", "Potency": "inconclusive: 26.9 µM [inhibitor, single point]"}
{"smiles": "Cc1c(C(=O)Nc2ccccc2)sc2nc3n(c(=O)c12)CCCCC3", "Potency": "inconclusive: 21.3 µM [inhibitor, single point]"}
{"smiles": "O=C(NCCC(c1ccccc1)c1ccco1)c1cccs1", "note": "(stereo not drawn)", "Potency": "inconclusive: 19 µM [inhibitor, partial curve, poor fit]"}
{"smiles": "O=C(Nc1nnc(S(=O)(=O)N2CCCc3ccccc32)s1)c1ccccc1", "Potency": "inconclusive: 30.1 µM [inhibitor, partial curve, poor fit]"}
{"smiles": "Cc1nc2ccccc2c2nc3ccccc3n12", "Potency": "inconclusive: 23.9 µM [inhibitor, single point]"}
{"smiles": "CCNC(=O)/C(C#N)=C/c1c(N2CCN(c3ccc(OC)cc3)CC2)nc2c(C)cccn2c1=O", "Potency": "inactive"}
{"smiles": "O=C(NNC(=O)c1csc(-c2cccnc2)n1)Nc1ccc(Cl)cc1", "Potency": "inconclusive: 23.9 µM [inhibitor, partial curve, poor fit]"}
{"smiles": "O=[N+]([O-])c1ccccc1/C=N/NC1=NCCCCC1", "Potency": "inconclusive: 23.9 µM [inhibitor, partial curve]"}
{"smiles": "CNC(=O)COc1ccc2oc3c(c2c1)CCCC3", "Potency": "inconclusive: 37.9 µM [inhibitor, single point]"}
